Measured values published in PubChem BioAssay AID248 (DTP/NCI, 2004).
Toxic doses and inconclusive results are not listed.

System: L1210 leukemia ip in BDF1 mice, survival T/C
Experiment: NCI In Vivo Anticancer Drug Screen. Data for tumor model L1210 Leukemia (intraperitoneal) in B6D2F1 (BDF1) mice
Conditions: endpoint: mean survival time, schedule: Q01DX001 (ip), vehicle: Klucel (hydroxypropylcellulose) (HPC), higher = longer survival
Protocol: The antitumor activity of compounds was measured in mice bearing transplantable tumors. Survival or tumor size were measured and the results are expressed as the measurement made in the treated group (T) divided by the measurement made in the vehicle treated control group (C). The tumor model used in this assay is L1210 Leukemia (intraperitoneal) in B6D2F1 (BDF1) mice

SMILES: CN[C@H]1CCc2cc(OC)c(OC)c(OC)c2-c2ccc(SC)c(=O)cc21
- T/C (dose: 25.0 mg/kg/injection): 107 % of control
- T/C (dose: 100.0 mg/kg/injection): 111 % of control
